According to the supplement of paper PMC6531468:
The list shows a part of the results. These are enrichments in a pooled selection; single values are uncertain. Each score is taken over the longer molecules that contain the sequence shown.

Legend:
Assay in all cases: 6-mer SELEX enrichment z-score vs GST control; IMP3 is the RNA-binding protein IGF2BP3; higher = more enriched by binding
IMP3 KH1-4 = settings: construct: KH1-4 (164-579); SELEX round: R4
Protocol: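 SELEX-seq with GST-tagged IMP3 KH1-4 (Pro164-Lys579) and an N40 RNA pool, round 4. 6-mer z-score of sequence-tag enrichment normalised to the corresponding GST SELEX round; RNA k-mers written as DNA (T for U).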

IMP3 RRM1-2 = settings: construct: RRM1-2 (1-163); SELEX round: R2
Chain of IMP3 RRM1-2 (chain, as listed by the source): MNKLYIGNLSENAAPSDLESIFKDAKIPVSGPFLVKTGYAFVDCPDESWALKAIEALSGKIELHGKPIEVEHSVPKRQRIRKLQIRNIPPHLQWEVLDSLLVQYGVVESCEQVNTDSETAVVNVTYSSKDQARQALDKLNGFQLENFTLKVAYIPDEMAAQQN
Protocol: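 SELEX-seq with GST-tagged IMP3 RRM1-2 (Met1-Asn163) and an N40 RNA pool, round 2. 6-mer enrichment z-score normalised to GST SELEX. RNA written as DNA (T = U).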

IMP3 full-length = IMP3 full-length (UniProt O00425); settings: construct: FL IMP3 (1-579); SELEX round: R4
Chain of UniProt O00425 (O00425 whole entry): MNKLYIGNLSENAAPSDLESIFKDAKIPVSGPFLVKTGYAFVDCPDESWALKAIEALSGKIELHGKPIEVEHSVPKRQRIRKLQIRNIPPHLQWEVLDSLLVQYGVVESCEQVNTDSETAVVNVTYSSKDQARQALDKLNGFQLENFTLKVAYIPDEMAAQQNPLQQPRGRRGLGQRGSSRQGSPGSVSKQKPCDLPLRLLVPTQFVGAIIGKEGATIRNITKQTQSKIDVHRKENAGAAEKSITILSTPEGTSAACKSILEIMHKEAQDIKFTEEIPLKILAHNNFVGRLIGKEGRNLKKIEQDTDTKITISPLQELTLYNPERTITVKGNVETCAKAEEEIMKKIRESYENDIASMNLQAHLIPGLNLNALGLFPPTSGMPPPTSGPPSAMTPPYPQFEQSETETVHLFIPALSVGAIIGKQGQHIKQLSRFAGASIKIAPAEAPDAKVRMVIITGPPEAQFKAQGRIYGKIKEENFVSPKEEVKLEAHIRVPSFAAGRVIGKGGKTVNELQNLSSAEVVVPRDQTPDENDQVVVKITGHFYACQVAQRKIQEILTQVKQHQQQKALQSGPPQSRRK
Protocol: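 SELEX-seq with GST-tagged full-length IMP3 and an N40 RNA pool, round 4. Each 6-mer is scored as an enrichment z-score of sequence tags containing it, normalised to the matching GST SELEX round. RNA written as DNA (T = U).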

IMP3 KH1-2 = settings: construct: KH1-2 (164-376); SELEX round: R4
Chain of IMP3 KH1-2 (chain, as listed by the source): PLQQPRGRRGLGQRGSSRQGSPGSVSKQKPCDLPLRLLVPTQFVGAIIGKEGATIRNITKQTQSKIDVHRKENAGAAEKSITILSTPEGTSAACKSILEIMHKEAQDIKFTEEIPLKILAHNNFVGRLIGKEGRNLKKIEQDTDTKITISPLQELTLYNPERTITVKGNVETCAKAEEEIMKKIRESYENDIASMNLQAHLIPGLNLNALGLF
Protocol: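 SELEX-seq with GST-tagged IMP3 KH1-2 (Pro164-Phe376) and an N40 RNA pool, round 4 (stringent 300/600 mM KCl washes). 6-mer z-score of sequence-tag enrichment normalised to the corresponding GST SELEX round; RNA k-mers written as DNA (T for U).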

Chain of IMP3 KH1-4 (chain, as listed by the source): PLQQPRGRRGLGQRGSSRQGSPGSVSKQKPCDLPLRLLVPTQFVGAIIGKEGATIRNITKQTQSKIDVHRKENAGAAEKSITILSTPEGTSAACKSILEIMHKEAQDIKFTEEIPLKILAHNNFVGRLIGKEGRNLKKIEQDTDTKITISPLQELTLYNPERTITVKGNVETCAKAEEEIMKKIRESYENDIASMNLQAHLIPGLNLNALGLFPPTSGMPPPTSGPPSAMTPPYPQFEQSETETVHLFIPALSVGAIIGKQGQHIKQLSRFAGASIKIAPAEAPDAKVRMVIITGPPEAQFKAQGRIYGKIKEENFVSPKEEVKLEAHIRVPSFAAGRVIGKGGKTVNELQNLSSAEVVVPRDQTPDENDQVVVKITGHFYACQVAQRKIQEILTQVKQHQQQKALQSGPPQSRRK

Sequence	6-mer SELEX enrichment z-score (IMP3 KH1-4)	6-mer SELEX enrichment z-score (IMP3 RRM1-2)	6-mer SELEX enrichment z-score (IMP3 full-length)	6-mer SELEX enrichment z-score (IMP3 KH1-2)
TGTCGC	0.049	0.299	0.135	0.006
TAACAA	1.15	0.099	0.059	–
CGTCAC	-0.618	0.348	0.364	-0.65
TCAATT	1.13	0.881	0.956	1.1
GGATTG	0.389	-0.094	-0.042	–
TTGTTT	0.332	0.42	0.135	–
GACGCG	-1.22	-0.43	-0.633	–
ACCTAA	-2.04	-1.17	-2.27	–
TCCCAA	-1.71	-0.853	-1.56	–
CTGGCG	-0.456	0.234	0.175	-0.303
CCACCC	-1.19	-0.984	-1.42	-1.17
CCGCTG	0.069	-0.305	0.045	0.337
ACCCGC	-1.63	-0.407	-0.962	-1.41
CGGTAA	0.017	-0.315	-0.098	-0.09
CATAGG	0.604	1.04	0.951	0.428
GCAGAA	0.053	-0.104	0.31	0.057
CGTAGG	-1.01	0.7	-0.217	-0.821
CCAAGA	-1.81	-1.34	-1.93	-1.78
GTAACT	-0.446	-0.324	-0.579	-0.415
ATCGTG	-0.534	-0.031	-0.279	-0.637
GTCCCT	-0.248	-0.091	-0.252	-0.304
GCGACG	-0.963	-0.406	-0.145	-0.853
ACTCAT	0.081	1.47	0.603	0.156

Sequence	6-mer SELEX enrichment z-score (IMP3 KH1-4)	6-mer SELEX enrichment z-score (IMP3 RRM1-2)	6-mer SELEX enrichment z-score (IMP3 full-length)	6-mer SELEX enrichment z-score (IMP3 KH1-2)
TGGGGG	1.2	0.377	0.559	1.79
GCGAAG	-0.995	-0.596	-0.557	-0.867
TAATTC	1.07	0.198	0.262	1.09
AGACTA	0.114	-0.564	-0.517	0.141
TGCTGG	0.323	0.163	0.211	0.31
TGATAA	1.33	-0.911	-0.339	0.951
TCGGTG	0.007	0.329	0.364	-0.013
TGATTG	0.481	-0.077	-0.209	0.274
ATACTC	-0.592	0.01	-0.458	-0.435
GCTAGG	-0.035	0.281	0.191	0.022
GCGGCC	1.09	0.028	1.82	0.935
TTGAAC	-0.382	-0.647	-0.814	-0.47
CGACAG	-0.934	-0.281	0.136	-0.822
GTCGGA	0.948	0.216	1.14	0.681
CGAACG	-3.13	-1.53	-2.01	-2.86
TTCGCG	-0.387	0.303	-0.132	-0.382
GGTGAA	0.109	-0.447	-0.102	0.077
AGCGGT	-0.111	0.138	0.208	-0.116
ACCACC	-0.605	-0.084	-0.839	-0.516
CCTCGA	-1.94	-0.291	-0.897	-1.71
AAGTCC	-0.05	-0.581	-0.368	-0.333
TTCTAC	0.486	0.381	-0.001	0.54
GAAGCC	-0.887	-1.13	-0.71	-0.718

Sequence	6-mer SELEX enrichment z-score (IMP3 KH1-4)	6-mer SELEX enrichment z-score (IMP3 RRM1-2)	6-mer SELEX enrichment z-score (IMP3 full-length)	6-mer SELEX enrichment z-score (IMP3 KH1-2)
GTACCT	-1.37	0.058	-0.829	-1.22
CGCAAT	0.384	0.166	0.457	0.435
CAGCAC	0.946	1.31	2.01	0.791
GTAACG	-0.693	-0.571	-0.594	-0.696
GAGCGG	-0.906	-0.129	0.391	-0.727
AAATAA	1.35	-1.98	-1.14	1.48
ATCGCT	0.44	0.123	0.201	0.348
CCCCTG	-0.43	-0.579	-0.825	-0.29
AGTAGA	-0.1	-0.249	-0.368	-0.258
TCCCGC	-0.615	-0.184	-0.213	-0.435
TACCGC	0.044	-0.315	-0.063	0.193
ATGCGC	-0.067	-0.033	0.116	-0.052
ACCTGG	-1.09	-0.487	-0.741	-0.981
GATATA	1.62	-0.416	0.17	1.43
CCCTCA	-0.33	0.744	-0.129	-0.222
CTTTCG	-0.199	0.199	-0.141	-0.184
GGCCCA	-0.606	-0.357	0.174	-0.53
AGGGGC	1.09	0.155	0.724	1.35
TAATAC	1.26	-0.356	0.004	1.21
CACTAA	1.45	0.718	0.52	1.45
TTTCAA	0.599	0.772	0.596	0.842
AGCTGG	-0.152	0.098	0.138	-0.077
TTAGTA	0.171	0.14	-0.07	0.07

Sequence	6-mer SELEX enrichment z-score (IMP3 KH1-4)	6-mer SELEX enrichment z-score (IMP3 RRM1-2)	6-mer SELEX enrichment z-score (IMP3 full-length)	6-mer SELEX enrichment z-score (IMP3 KH1-2)
CTAGTC	0.036	0.255	-0.005	-0.093
ATCTGC	0.166	0.085	0.208	0.145
AGATAT	1.11	-0.321	0.021	0.963
AACATC	0.144	1.77	1.7	0.058
TGGTGT	-0.089	0.496	-0.01	-0.009
TTACTG	0.773	0.027	-0.045	0.74
GGACTC	-0.754	-0.155	-0.249	-0.636
TTAGCG	-0.607	0.201	-0.368	-0.554
ATTTCG	0.077	0.21	0.025	0.002
CCGGTC	-0.09	-0.132	0.251	-0.046
GGTTCA	0.165	0.473	0.456	0.143
ACGTTC	-0.359	-0.025	-0.172	-0.468
AGGATG	1.03	-0.333	0.188	0.789
GAGCTT	-0.763	0.181	-0.254	-0.577
GAACGC	-1.1	-1.03	-0.809	-0.956
CCGCCT	-0.451	-0.246	-0.331	-0.204
AATGAA	1.83	-1.94	-1.02	1.16
CACCCT	-0.794	-0.208	-0.852	-0.844
GTCGTG	0.013	0.282	0.224	-0.013
GCGAGC	-1.91	0.02	0.17	-1.65
GAAGTA	-0.141	-0.69	-0.564	-0.294
TTGCGC	-0.441	0.105	-0.204	-0.417
